Experimental data from PMC4336329 (PLoS ONE, 2015).
In all, about 310,000 compounds went through this assay and about 2,200 (0.71%) showed an effect of 50% or more. Effects have a minus sign here. This is one part of the list.

biological target: human ether-à-go-go-related gene (hERG) potassium channel (human, UniProt Q12809); experiment: primary screen, population patch clamp on CHO cells stably expressing hERG
Sequence (Q12809 whole entry, looked up): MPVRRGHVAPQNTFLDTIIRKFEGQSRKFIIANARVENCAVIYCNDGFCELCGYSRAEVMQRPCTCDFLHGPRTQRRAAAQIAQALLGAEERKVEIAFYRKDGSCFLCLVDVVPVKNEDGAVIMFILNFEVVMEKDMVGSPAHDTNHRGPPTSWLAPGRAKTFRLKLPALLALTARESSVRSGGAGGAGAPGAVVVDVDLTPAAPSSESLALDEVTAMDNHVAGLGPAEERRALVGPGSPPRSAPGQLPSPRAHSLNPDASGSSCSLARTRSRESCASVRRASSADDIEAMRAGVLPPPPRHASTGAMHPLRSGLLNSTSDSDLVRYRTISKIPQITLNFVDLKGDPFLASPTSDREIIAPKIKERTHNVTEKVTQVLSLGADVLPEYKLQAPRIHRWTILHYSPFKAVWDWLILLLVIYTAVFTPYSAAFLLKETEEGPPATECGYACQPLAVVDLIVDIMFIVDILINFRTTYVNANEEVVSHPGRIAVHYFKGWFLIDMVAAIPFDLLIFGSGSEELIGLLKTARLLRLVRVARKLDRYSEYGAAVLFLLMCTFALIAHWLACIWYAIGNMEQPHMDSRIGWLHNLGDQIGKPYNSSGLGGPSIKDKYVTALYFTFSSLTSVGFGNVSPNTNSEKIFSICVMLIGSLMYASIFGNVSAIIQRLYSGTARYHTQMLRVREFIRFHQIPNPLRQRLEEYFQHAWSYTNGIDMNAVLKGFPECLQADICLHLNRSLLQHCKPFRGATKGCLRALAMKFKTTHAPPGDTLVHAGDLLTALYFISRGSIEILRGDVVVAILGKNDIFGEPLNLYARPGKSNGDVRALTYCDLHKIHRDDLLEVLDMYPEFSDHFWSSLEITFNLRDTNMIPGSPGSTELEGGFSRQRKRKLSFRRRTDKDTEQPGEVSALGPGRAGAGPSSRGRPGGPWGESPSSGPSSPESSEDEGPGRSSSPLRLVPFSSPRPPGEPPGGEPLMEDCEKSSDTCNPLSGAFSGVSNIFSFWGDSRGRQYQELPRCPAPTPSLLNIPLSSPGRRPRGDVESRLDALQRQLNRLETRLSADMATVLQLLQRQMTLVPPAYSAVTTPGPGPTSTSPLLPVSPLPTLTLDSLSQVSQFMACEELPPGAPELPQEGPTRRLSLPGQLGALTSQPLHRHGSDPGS

| Structure (SMILES) | hERG current change (%, negative = inhibition) at 1uM |
| --- | --- |
| O=C(c1sc2cccc(Cl)c2c1Cl)N1CCN(CCc2ccccn2)CC1 | 0.613% |
| Cn1c(SCC(=O)NCc2ccc3c(c2)OCO3)ncc(C(=O)Nc2ccc(F)cc2)c1=O | -0.579% |
| Cc1ccc(OP(=O)(NC(C)c2ccccc2)Oc2ccc(C)cc2)cc1 (stereo not shown) | 15.5% |
| O=C(NCCCNC(=O)c1ccco1)c1ccc(Cl)c(Cl)c1 | 5.08% |
| CCCS(=O)(=O)N1CCCC(C(=O)NCCN2CCC(Cc3ccccc3)CC2)C1 (stereo not shown) | -31% |
| Cc1n[nH]c(=O)c2c(NC(=O)COC(=O)COc3cccc(Br)c3)oc(C)c12 | -6.05% |
| COc1cc(OC)cc(C(=O)NCC(=O)NC(C)c2ccccc2)c1 (stereo not shown) | 13.1% |
| COC(=O)C(C)NC(=O)COc1ccc2ccccc2c1 (stereo not shown) | 4.14% |
| Cn1cnc(S(=O)(=O)Nc2ccc(C(F)(F)F)cc2)c1 | 1.15% |
| COc1cc(C)c(C(=O)CSc2nnc(CNC(=O)c3ccco3)n2C)cc1C | 8.28% |
| CCN(Cc1ccccc1)C(=S)Nc1cc(C(=O)OC)ccc1C(=O)OC | 10.2% |
| COc1cc(C(=O)NCCOc2cc(C)cc(C)c2)c(Br)c(OC)c1OC | -0.854% |
| O=C1Nc2ccccc2/C1=C/c1cccnc1 | 12.5% |
| CS(=O)(=O)O.Cc1cccc2c1Sc1ccc(Cl)cc1CC2N1CCNCC1.O (stereo not shown) | 16.4% |
| COc1cc(C)c2occ(/C(C)=N\O)c2c1 | -3.29% |
| COc1ccc(CC2(CO)CCN(C(=O)NCc3ccccc3)CC2)cc1 | 10.4% |
| CCCOc1ccc(N2CC(C(=O)Nc3ccccc3C(=O)NCc3ccco3)CC2=O)cc1 (stereo not shown) | -29.5% |
| Cc1cc(C)nc(NC(=O)c2ccc3c(c2)OCO3)c1 | 20.6% |
| O=C(CCCCCN1C(=O)[C@@H]2Cc3ccccc3CN2C1=O)Nc1cccc(F)c1 | -24.6% |
| Cc1nn(Cc2ccc(Cl)cc2)c(C)c1NC(=O)c1ccc([N+](=O)[O-])cc1 | -34.7% |
| COc1cccc(OC)c1C(=O)Nc1ccc(C(=O)NCc2ccccc2)cc1 | 4.61% |
| COc1ccc(C(=O)Nc2ccc3c(c2)n(C)c(=O)n3C)cc1OC | 15.9% |
| CC(C)NC(=O)C1CCN(C(=O)N(C)C)CC1 | 0.481% |
| C[C@@]12CCC3[C@@](CCC4[C@@]3(C)CCC[C@@]4(C)C(=O)NCc3ccccc3)(CC1=O)C2 (stereo partly shown) | 0.578% |
| Clc1ccc(-c2nnc(SCc3nc(-c4ccccc4)no3)o2)cc1 | 9.75% |
| O=C(COC(=O)CCCNC(=O)c1ccc(Cl)cc1)Nc1cc(Cl)ccc1Cl | 19.7% |
| CCOC(=O)N1CCN(C(=O)CCCN2C(=O)CSc3nc(C)cc(C)c32)CC1 | 9.76% |
| Cc1csc2ncnc(NCCc3ccccn3)c12 | 1.77% |

| Structure (SMILES) | hERG current change (%, negative = inhibition) at 1uM |
| --- | --- |
| COc1cccc(CNS(=O)(=O)c2cc3c(cc2Cl)NC(=O)CO3)c1 | -3.15% |
| O=C(CN1C(=O)c2cccnc2Oc2ccc(Cl)cc21)NC1CCCC1 | 8.97% |
| O=C(CSCc1c(Cl)cccc1Cl)Nc1ccc2c(c1)OCO2 | 8.38% |
| CC(OC(=O)c1ccc(Cl)c(S(N)(=O)=O)c1)C(=O)NCC1CCCCC1 (stereo not shown) | 11.9% |
| CCOc1ccc2ccccc2c1CNCCN1CCOCC1.Cl | -5.74% |
| COC(=O)c1[nH]c2cccc(OC)c2c1NC(=O)CN1CCOCC1 | 4.75% |
| CCOC(=O)c1sc(NC(=O)CSc2nnc(-c3ccco3)o2)c(C(=O)OCC)c1C | 6.1% |
| CCCCn1c(N)c(N(CCOC)C(=O)c2cccc(S(=O)(=O)N(C)c3ccc(C)cc3)c2)c(=O)[nH]c1=O | 1.27% |
| CNC(=O)c1c(NC(=O)c2ccc(S(=O)(=O)N3CCCCC3C)cc2)sc2c1CCN(C)C2 (stereo not shown) | 9.52% |
| CCCCN(CC)CCCNC(=O)CC1Oc2ccccc2NC1=O (stereo not shown) | -7.18% |
| O=C(CC1C(=O)NCCN1C(=S)Nc1ccccc1)Nc1ccc(F)cc1 (stereo not shown) | -4.3% |
| Cl.O=C(COc1ccc(Br)cc1CNCCc1ccccc1)NCc1ccccc1 | -11.5% |
| O=C(COc1ccccc1)Nc1ncc2c(n1)CCCC2=O | 10.8% |
| CS(=O)(=O)C1=NSC2=NC(=O)/C(=C\c3ccc(OC(=O)c4ccco4)c(Br)c3)C(=N)N21 | 12.2% |
| CC(=O)N1CCOc2ccc(S(=O)(=O)N3C(C)CCCC3C)cc21 (stereo not shown) | 11% |
| Cc1cc(-c2csc(NC(=O)c3ccc(C#N)cc3)n2)c(C)n1Cc1ccccc1 | 11.6% |
| CCOC(=O)C(=O)N(CC)C1CCS(=O)(=O)C1 (stereo not shown) | 8.82% |
| Cc1c2cnn(-c3ccccc3)c(=O)c2c(C)n1CCCC(=O)NCCN1CCN(C)CC1 | 9.84% |
| CCSc1ccc(NC(=O)c2cccnc2)cc1 | 5.83% |
| CCN(CC(=O)Nc1c(F)cccc1F)C(=O)CNC(=O)c1cccs1 | 10.9% |
| CN1CCN(C(=O)NC2CCCN2S(=O)(=O)c2ccc(Cl)cc2)CC1 (stereo not shown) | 5.18% |
| CN1c2ccc([N+](=O)[O-])cc2CC2(C(=O)NC(=O)N(c3ccccc3)C2=O)C1c1ccccc1 (stereo not shown) | 23.8% |
| CN(Cc1cccs1)c1ncnc2sccc12 | 4.33% |
| CCCNC(=O)N1c2ccccc2Sc2ccccc21 | 16.8% |
| CCCS(=O)(=O)c1csc(C(=O)OC)c1N | 10.1% |
| CN(CC(=O)Nc1cccc(F)c1)C(=O)c1ccc(N2CCCC2)c([N+](=O)[O-])c1 | -8.06% |
| CCOC(=O)C1=C(N)Oc2c(oc(CO)cc2=O)C1c1c(F)cccc1Cl (stereo not shown) | 7.71% |
